Tests used:
[1] = molecular target: T1, 人4-1BB胞外段, 带鼠Fc标签 (human 4-1BB extracellular domain with mouse Fc tag, Example 5) (human, UniProt Q07011 24-186); assay: bridging ELISA: PD-L1-His coated, bispecific, then 4-1BB-mouse Fc, anti-mouse HRP
T1 construct: also called 抗原人4-1BB; not shown: mouse Fc tag

[2] = molecular target: T2, 人4-1BB胞外段 (human 4-1BB extracellular domain, HEK293-expressed, Example 4) (human, UniProt Q07011 24-186); assay: ELISA, human 4-1BB ECD coated, anti-human IgG HRP
T2 construct: also called 人4-1BB抗原; CD137

[3] = molecular target: T3, 人PD-L1全长, 表达于CHO-K1细胞 (CHO-K1/hPD-L1; CHO-K1/PDL1/TCR) (human, UniProt Q9NZQ7); assay: flow cytometry on CHO-K1/hPD-L1 cells, anti-human FITC
T3 construct: Full-length human PD-L1 transfected into CHO-K1 cells; also called 细胞表面人PD-L1抗原

[4] = molecular target: T4, 人4-1BB全长, 表达于细胞 (CHO-K1/h4-1BB; HEK-293/NFκB-Luci/4-1BB) (human, UniProt Q07011 24-255); assay: flow cytometry on CHO-K1/h4-1BB cells
T4 construct: also called 细胞表面人4-1BB抗原

[5] = molecular target: T3, 人PD-L1全长, 表达于CHO-K1细胞 (CHO-K1/hPD-L1; …); assay: flow cytometry on CHO-K1/hPD-L1 cells, 4-parameter logistic fit

Chain of UniProt Q9NZQ7 (Q9NZQ7 19-290 limits assumed): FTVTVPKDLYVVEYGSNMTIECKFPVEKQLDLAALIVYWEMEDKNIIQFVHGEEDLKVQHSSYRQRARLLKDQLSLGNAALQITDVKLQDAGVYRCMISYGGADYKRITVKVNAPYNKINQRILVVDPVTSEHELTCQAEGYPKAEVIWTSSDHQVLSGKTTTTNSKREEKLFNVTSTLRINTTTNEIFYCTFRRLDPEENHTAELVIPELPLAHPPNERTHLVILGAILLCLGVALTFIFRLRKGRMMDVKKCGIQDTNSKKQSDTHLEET

binding result [1]: binds
binding result [2]: binds
FACS fluorescence signal at 0.308 nM (name of read-out not given) [3]: 505
FACS fluorescence signal at 0.617 nM (name of read-out not given) [3]: 671
FACS fluorescence signal at 1.851 nM (name of read-out not given) [3]: 1200
FACS fluorescence signal at 5.555 nM (name of read-out not given) [3]: 3340
FACS fluorescence signal at 16.666 nM (name of read-out not given) [3]: 8000
FACS fluorescence signal at 50 nM (name of read-out not given) [3]: 8730
binding result [4]: binds
EC50 [5]: 7.34 nM
B1: 抗人PD-L1/4-1BB双特异性抗体 结构A (anti-4-1BB scFv-(G4S)2-IgG4 Fc-(G4S)3-anti-PD-L1 scFv) (bispecific antibody)
chain: DIQMTQSPSSLSASLGDRVTISCSASQGISNYLNWYQQKPDGTVKLLIYYTSTLHSGVPSRFSGSGSGTDYTLTISSLQPEDIATYYCQQYSKLPWTFGCGTKLEIKGGGGSGGGGSGGGGSGGGGSQVQLQESGPGLVKPSETLSLTCTVSGSSLTSYGVHWVRQPPGKCLEGLGVIWPGGSTNYNSALMSRVTISKDNSKSQVSLKMSSLTAADTAVYYCARVTGTWYFDVWGQGTTVTVSSGGGGSGGGGS[human IgG4 Fc with S228P F234A L235A (EU numbers) not shown]GGGSGGGGSGGGGSDIQMTQSPSTLSASVGDRVTITCQSSQNVYSNNRLSWYQQKPGKAPKLLIYWTSFLASGVPSRFSGSGSGTEFTLTISSLQPDDFATYYCAGGYSGNLYTFGCGTKLEIKGGGGSGGGGSGGGGSGGGGSDVQLVESGGGLVQPGGSLRLSCTVSGIDLSSYDMTWVRQAPGKCLEYIGYISYVSRTYYADSVKGRFTISKDTSKNTVYLQMNSLRAEDTAVYYCARDRPDGAATNLWGQGTLVTVSS
notes: also called A结构

Reference: CN115677859A (HEFEI HANKEMAB BIOTECHNOLOGY CO LTD; ANHUI ANKE …, dated 2023)
